Test results taken from PMC9911399, “Two distinct binding modes provide the RNA-binding protein RbFox with extraordinary sequence specificity”.
Where a chain is given by its changes, count along the chain named. This is one part of the list.

T1: RBFOX1 RRM RbFoxmut (Fox-RRM*) (Homo sapiens, UniProt Q9NWB1 109-208, R118D;E147R;N151S;E152T)
T1 sequence: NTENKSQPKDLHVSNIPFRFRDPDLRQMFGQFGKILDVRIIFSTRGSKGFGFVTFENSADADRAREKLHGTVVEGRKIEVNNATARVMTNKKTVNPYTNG

B1: AAACCAA (DNA:RNA)
RNA: GGGAGACCGGAAUUCAGAUUGUCCAAACCAAUUAAAUCCCGUCGUAGCCACCA
DNA 1: CAATCTGAATTCCGGTCTCCC
DNA 2: TGGTGGCTACGACGGGATT
B2: CGCUCUU (DNA:RNA)
RNA: B1 RNA with A25C, A26G, A27C, C28U, A30U, A31U
DNA 1: CAATCTGAATTCCGGTCTCCC
DNA 2: TGGTGGCTACGACGGGATT
B3: UGUGCCU (DNA:RNA)
RNA: B1 RNA with A25U, A26G, A27U, C28G, A30C, A31U
DNA 1: CAATCTGAATTCCGGTCTCCC
DNA 2: TGGTGGCTACGACGGGATT
B4: GACAAAU (DNA:RNA)
RNA: B1 RNA with A25G, A27C, C28A, C29A, A31U
DNA 1: CAATCTGAATTCCGGTCTCCC
DNA 2: TGGTGGCTACGACGGGATT
B5: GACCGGG (DNA:RNA)
RNA: B1 RNA with A25G, A27C, C29G, A30G, A31G
DNA 1: CAATCTGAATTCCGGTCTCCC
DNA 2: TGGTGGCTACGACGGGATT
B6: UUAACUC (DNA:RNA)
RNA: B1 RNA with A25U, A26U, C28A, A30U, A31C
DNA 1: CAATCTGAATTCCGGTCTCCC
DNA 2: TGGTGGCTACGACGGGATT
B7: GCCCUAC (DNA:RNA)
RNA: B1 RNA with A25G, A26C, A27C, C29U, A31C
DNA 1: CAATCTGAATTCCGGTCTCCC
DNA 2: TGGTGGCTACGACGGGATT
B8: AGAGUGU (DNA:RNA)
RNA: B1 RNA with A26G, C28G, C29U, A30G, A31U
DNA 1: CAATCTGAATTCCGGTCTCCC
DNA 2: TGGTGGCTACGACGGGATT
B9: GGUCUGC (DNA:RNA)
RNA: B1 RNA with A25G, A26G, A27U, C29U, A30G, A31C
DNA 1: CAATCTGAATTCCGGTCTCCC
DNA 2: TGGTGGCTACGACGGGATT
B10: AUCUAAC (DNA:RNA)
RNA: B1 RNA with A26U, A27C, C28U, C29A, A31C
DNA 1: CAATCTGAATTCCGGTCTCCC
DNA 2: TGGTGGCTACGACGGGATT
B11: GCAUCAU (DNA:RNA)
RNA: B1 RNA with A25G, A26C, C28U, A31U
DNA 1: CAATCTGAATTCCGGTCTCCC
DNA 2: TGGTGGCTACGACGGGATT
B12: AGGCAGG (DNA:RNA)
RNA: B1 RNA with A26G, A27G, C29A, A30G, A31G
DNA 1: CAATCTGAATTCCGGTCTCCC
DNA 2: TGGTGGCTACGACGGGATT
B13: UGAGCUA (DNA:RNA)
RNA: B1 RNA with A25U, A26G, C28G, A30U
DNA 1: CAATCTGAATTCCGGTCTCCC
DNA 2: TGGTGGCTACGACGGGATT
B14: UCCCUUU (DNA:RNA)
RNA: B1 RNA with A25U, A26C, A27C, C29U, A30U, A31U
DNA 1: CAATCTGAATTCCGGTCTCCC
DNA 2: TGGTGGCTACGACGGGATT
B15: UUAUGUG (DNA:RNA)
RNA: B1 RNA with A25U, A26U, C28U, C29G, A30U, A31G
DNA 1: CAATCTGAATTCCGGTCTCCC
DNA 2: TGGTGGCTACGACGGGATT
B16: GGAAGGC (DNA:RNA)
RNA: B1 RNA with A25G, A26G, C28A, C29G, A30G, A31C
DNA 1: CAATCTGAATTCCGGTCTCCC
DNA 2: TGGTGGCTACGACGGGATT
B17: AGCGUCU (DNA:RNA)
RNA: B1 RNA with A26G, A27C, C28G, C29U, A30C, A31U
DNA 1: CAATCTGAATTCCGGTCTCCC
DNA 2: TGGTGGCTACGACGGGATT
B18: UUUCUAC (DNA:RNA)
RNA: B1 RNA with A25U, A26U, A27U, C29U, A31C
DNA 1: CAATCTGAATTCCGGTCTCCC
DNA 2: TGGTGGCTACGACGGGATT
B19: GGAUGCG (DNA:RNA)
RNA: B1 RNA with A25G, A26G, C28U, C29G, A30C, A31G
DNA 1: CAATCTGAATTCCGGTCTCCC
DNA 2: TGGTGGCTACGACGGGATT
B20: CCUAGUG (DNA:RNA)
RNA: GGGAGACCGGAAUUCAGAUUGUCCCCUAGUGUUAAAUCCCGUCGUAGCCACCA
DNA 1: CAATCTGAATTCCGGTCTCCC
DNA 2: TGGTGGCTACGACGGGATT

Biological target: T1, RBFOX1 RRM RbFoxmut (Fox-RRM*)
Experiment: EMSA; HiTS-Eq, 1 nM pool, 10 min; buffer printed only for the single-RNA assays: 10 mM Tris pH 7.5, 150 mM NaCl, 3.4 mM EDTA, 0.001% NP-40, 30 C
Conditions: tags: His6 N-terminal (pET28a); label: 5' 32P
Procedure, shortened: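 Purified RbFox RRM (wild type or mutant) was equilibrated for 10 min in 50 µL with 1 nM of a 5′-radiolabelled pool of RNA with 7 randomized nucleotides, its flanks annealed to DNA oligonucleotides, across increasing protein concentrations. Free RNA was separated by 8% native PAGE, excised, reverse-transcribed, PCR-barcoded and sequenced on an Illumina HiSeq 2500. Relative association constants came from read-count changes of each variant against the control reaction, normalised to the cognate motif.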

Row | Binder | binding signal
1 | B1 | 0.0845 KA relative to UGCAUGU
2 | B2 | 0.0761 KA relative to UGCAUGU
3 | B3 | 0.113 KA relative to UGCAUGU
4 | B4 | 0.0678 KA relative to UGCAUGU
5 | B5 | 0.0549 KA relative to UGCAUGU
6 | B6 | 0.0749 KA relative to UGCAUGU
7 | B7 | 0.084 KA relative to UGCAUGU
8 | B8 | 0.16 KA relative to UGCAUGU
9 | B9 | 0.134 KA relative to UGCAUGU
10 | B10 | 0.096 KA relative to UGCAUGU
11 | B11 | 0.313 KA relative to UGCAUGU
12 | B12 | 0.117 KA relative to UGCAUGU
13 | B13 | 0.11 KA relative to UGCAUGU
14 | B14 | 0.0764 KA relative to UGCAUGU
15 | B15 | 0.124 KA relative to UGCAUGU
16 | B16 | 0.0498 KA relative to UGCAUGU
17 | B17 | 0.0943 KA relative to UGCAUGU
18 | B18 | 0.0848 KA relative to UGCAUGU
19 | B19 | 0.231 KA relative to UGCAUGU
20 | B20 | 0.127 KA relative to UGCAUGU
